According to PubChem BioAssay AID1508642 (National Center for Advancing Translational Sciences (NCATS), 2021):
About 200 (0.47%) of roughly 43,000 compounds were called active. Another 12% or so got no clear call; they are omitted. The call rests on the fitted dose curve; in most records, active means well fitted cell-killing curve with a large enough effect; inconclusive means small, poorly fitted or top-dose-only effect, or effect the other way; inactive means flat fitted curve, though single readings scatter. This is one part of the list.

test: Cell viability qHTS assay in S16 Pmp22-F2sN cells; settings: S16 Pmp22-F2sN Schwann cells (luciferase reporters placed in the Pmp22 gene) viability, CellTiter-Glo, 24 h; series mostly up to 57.5 µM; activity change, negative = cytotoxicity: at the top concentration; further: nearly all actives have a fitted effect of over 65% in size
Summary of the method: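 Rat S16 Schwann reporter line, 24 h treatment with library compounds delivered at 23 nL per well. Cell viability by CellTiter-Glo luminescence.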
On the % scale 0 is the no-effect control and ±100 the full control effect.

Compound	activity change, negative = cytotoxicity
Cc1ccc(N2CC(C(=O)NCCS(=O)(=O)N3CCN(c4ccccc4)CC3)CC2=O)cc1 (centres undefined)	inactive: 5.3%
COCCN1C(=O)c2oc3cc(C)cc(C)c3c(=O)c2C1c1cccc(O)c1 (centres undefined)	inactive: 4.45%
COc1ccc(CNC(=O)c2cc3c(-c4ccc(Cl)cc4)nn(C)c3s2)cc1	inactive: 11.2%
COc1ccc(S(=O)(=O)N(CCc2ccccc2)CC(=O)NCc2ccccc2)cc1	inactive: 6.21%
CCOC(=O)c1cccc(NC(=O)Cn2nc3c(cc2=O)CCCC3)c1	inactive: 6.43%
COc1ccccc1N1CCN(C(=O)c2cc3c(=O)n(C)c4ccccc4c3s2)CC1	inactive: 1.32%
COc1ccc(-c2nc(SCC(=O)NC3CCCC3)c(-c3ccc(OC)cc3)[nH]2)cc1	inactive: 6.1%
COc1ccc(CNC(=O)Cn2nc(C)n3cccc3c2=O)cc1	inactive: -1.92%
CC1CCN(C(=O)c2ccc3c(c2)N(Cc2ccccc2F)C(=O)c2ccccc2S3(=O)=O)CC1	inactive: 12%
Cc1ccc(NC(=O)C(=O)NCC(c2cccnc2)N2CCOCC2)cc1 (centres undefined)	inactive: 9.39%
Cc1c(Cl)cccc1-n1ncc(C(=O)N2CCN(C)CC2)c1C1CCN(C(=O)OC(C)(C)C)CC1	inactive: 3.11%
CC(C)Cn1c(=O)c2ccccc2n2c(CCC(=O)N3CCN(c4cccc(Cl)c4)CC3)nnc12	inactive: -7.7%
CC(=O)c1ccc(N2CCN(c3ncnc4c3c(-c3ccccc3)cn4-c3ccc(C)c(Cl)c3)CC2)cc1	inactive: 0.445%
COCCCN(Cc1ccco1)C(=O)c1cc2c(s1)-c1ccccc1OC2	inactive: -0.876%
COc1ccccc1-c1noc(-c2ccc(N3CCOCC3)c([N+](=O)[O-])c2)n1	inactive: -9.25%
Cc1cccc(C)c1NC(=O)CN1C(=O)CCSc2ccc(S(=O)(=O)N3CCCC3)cc21	inactive: 5.26%
COc1ccc(N(CC(=O)Nc2ccc(C)c(C)c2)S(=O)(=O)c2ccc(C)cc2)cc1OC	inactive: -3.36%
Cc1ccc(C)c(N2C(=O)N(Cc3c(F)cccc3Cl)c3ccccc3S2(=O)=O)c1	inactive: -12.4%
COC(=O)c1cc(NC(=O)Nc2ccc3snnc3c2)cc(C(=O)OC)c1	inactive: 0.268%
O=C(COc1ccccc1)Nc1sc2c(c1C(=O)Nc1ccccc1Cl)CCCCC2	inactive: -9.46%
CCN(Cc1nc(-c2cccc(C)c2)no1)S(=O)(=O)c1ccc(C)cc1	inactive: -15.3%
CC(=O)OCc1cc(=O)n2nc(C3CCCCC3)sc2n1	inactive: 0.571%
Cc1ccccc1-c1noc(-c2ccc(N3CCN(c4ccccc4)CC3)c([N+](=O)[O-])c2)n1	inactive: 12%
COc1ccc(N2CC(NC(=O)COc3ccccc3F)CC2=O)cc1OC (centres undefined)	inactive: -8.06%

Compound	activity change, negative = cytotoxicity
CC(C)CCNC(=O)CN1C(=O)CCn2nc(-c3cn(C)c4ccccc34)cc21	inactive: 9.57%
COc1ccc(C)c2sc(NC(=O)c3ccc(S(=O)(=O)N4CCCCC4)cc3)nc12	inactive: 16.4%
Cc1cc(C)cc(Nc2ncnc3c2nc2n3CCCC2)c1	inactive: 6.74%
CCOc1ccc(CCNC(=O)c2ccc(-c3nc(CSc4ccc(C)cc4)c(C)o3)cc2)cc1	inactive: 0.111%
Cc1nc(S(=O)(=O)N2CCN(c3ccc(Cl)cc3)CC2)cn1C	inactive: 2.19%
Cc1nnc(SCc2cc(=O)c3ccccc3[nH]2)s1	inactive: -5.74%
CCOc1ccc(S(=O)(=O)NCCc2csc(-c3ccc(Cl)cc3)n2)cc1	inactive: -5.37%
CCCCC1CCC(C(=O)N2CC(=O)Nc3ccc(F)cc3C2c2ccc(F)cc2)CC1 (centres undefined)	inactive: -25.4%
COc1ccc(C2CC(=O)Nc3c2c(=O)nc2c(C)cccn32)cc1OC (centres undefined)	inactive: -1.27%
COc1ccc(OCc2ccc(-c3nc(C#N)c(N4CCN(C)CC4)o3)o2)cc1	inactive: 5.29%
CCC1CN(C(=O)NCc2cccc(OC)c2)c2cc(Cl)ccc2O1 (centres undefined)	inactive: -13.4%
Cc1ccccc1C(=O)c1cccn1CC(=O)NCc1ccc(Cl)cc1	inactive: 3.75%
COc1ccccc1CNC(=O)Cc1c(C)c2c(cc(C)c3c(C)c(C)oc32)oc1=O	inactive: 14.7%
Cc1ccc2c(CN3CCN(Cc4ccccc4Cl)CC3)cc(=O)oc2c1	inactive: 7.54%
COc1ccc(CCNC(=O)CCCn2c(=O)c3cccn3c3cccnc32)cc1OC	inactive: 8.48%
COc1ccc(NC(=O)CSc2cn(CC(=O)N3CCCCC3)c3ccccc23)c(OC)c1	inactive: -15.4%
CCCC(=O)Nc1ccc2c(c1)nc(CN1CCN(C(=O)OCC)CC1)n2C(C)C	inactive: -5.68%
COc1ccc(NC(=O)c2ccc(CN3C(=O)CCn4nc(C)cc43)cc2)c(OC)c1	inactive: -11.9%
CCn1c2ccccc2c2nnc(N3CCN(c4ccc(F)cc4)CC3)nc21	inactive: 16.2%
CCOC(=O)c1c(NC(=O)COc2cccc(C(F)(F)F)c2)sc2c1CCC(C)C2 (centres undefined)	inactive: -2.83%
CCOC(=O)c1cc2c(=O)n3ccccc3nc2n(CC2CCCO2)c1=NC(=O)c1ccc(C(C)(C)C)cc1 (centres undefined)	inactive: -6.57%
Cc1nc2sc(C(=O)N(C)Cc3ccccc3)c(NC(=O)c3ccccc3)c2c(C)c1Cl	inactive: 6.14%
Cc1ccc(-c2cc(NC(=O)c3ccccc3Cl)on2)cc1	inactive: -0.179%
CCOC(=O)c1c(S(=O)(=O)N2CCCC(C(=O)Nc3ccc(OCC)cc3)C2)c(C)n(C)c1C (centres undefined)	inactive: -2.1%

Compound	activity change, negative = cytotoxicity
Cc1ccc(S(=O)(=O)c2cn(Cc3cccc(F)c3)c3cc(N4CCCC4)c(F)cc3c2=O)cc1	inactive: 3.59%
COc1ccc(C)cc1Nc1nc2c(S(=O)(=O)c3cccc(Cl)c3)nnn2c2ccsc12	inactive: 3.87%
CCOc1ccc(NC(=O)c2cc3sc(Cl)cc3n2CC)cc1	inactive: -28.2%
Cc1cc(C)n(C(C)CC(=O)NCc2ccccc2C)n1 (centres undefined)	inactive: -9.02%
CCCCN(CCCC)c1ncnc2c1cnn2-c1cccc(C)c1	inactive: 20.8%
COc1ccc(Br)cc1C(=O)Nc1ccc2oc(-c3cccnc3)nc2c1	inactive: 4.39%
CCN1CCN(CCCNC(=O)c2ccc3nc(Cc4ccc(OC)cc4)oc3c2)CC1	inactive: 6.66%
CCOc1cc(CNS(=O)(=O)c2ccc3c(c2)CC(=O)N3C)cc(OCC)c1OCC	inactive: -2.87%
Cc1cccc(NC(=O)CN(c2ccc(C(C)C)cc2)S(=O)(=O)c2c(C)nn(C)c2C)c1C	inactive: -8.49%
CCOC(=O)C1CCN(S(=O)(=O)c2cc(-c3onc(C)c3C)ccc2C)CC1	inactive: -8.82%
Cc1ccc(-n2ncc3c(N4CCN(c5ccccc5)CC4)ncnc32)cc1C	inactive: -3.83%
COC(=O)c1c(NC(=O)c2cc(=O)c3c(C)cc(C)cc3o2)sc2c1CCCC2	inactive: 5.69%
COc1ccc(N2C(=O)CSC23C(=O)N(C)c2ccccc23)cc1Cl (centres undefined)	inactive: -1.53%
CCc1ccccc1Nc1cc(C(=O)NCc2ccc(C)cc2)c2ccccc2n1	inactive: -18.8%
CCOC(=O)N1CCN(C(=O)c2ccc3c(c2)N(Cc2ccccc2F)C(=O)c2ccccc2S3=O)CC1 (centres undefined)	inactive: 0.476%
O=C(c1c2c(nc3ccccc13)C(=O)N(C1CCCCC1)C2)N1CCN(c2ccc(F)cc2)CC1	inactive: 4.1%
CC(=O)N1CCCc2cc(S(=O)(=O)N3CCC(C(=O)N(Cc4ccccc4)C(C)C)CC3)ccc21	inactive: -22.6%
COCCn1c(C)cc(O)c(C(c2ccccc2)N2CCC(C)CC2)c1=O (centres undefined)	inactive: -7.08%
Cc1cc(C)c2c(n1)nn1c(C)c(CCC(=O)Nc3cccc(C)c3C)c(C)nc21	inactive: -3.97%
Cc1ccc(Cl)cc1N1CCN(C(=O)C2CCN(S(=O)(=O)c3cn(C)cn3)CC2)CC1	inactive: -3.49%
Cc1cccc(N2CCN(CCCNC(=O)Cn3ncc4c([nH]c5ccccc54)c3=O)CC2C)c1 (centres undefined)	inactive: 2.77%
CCc1ccc(S(=O)(=O)Nc2ccc3c(c2)sc(=O)n3C)cc1	inactive: -1.67%
Cc1ccc(Cl)cc1NC(=O)CN1C=NS(=O)(=O)c2ccccc21	inactive: -1.58%
Cc1cccc(Cn2c(=O)n(-c3cc(C)cc(C)c3)c(=O)c3oc4ccccc4c32)c1	inactive: 10.4%

Compound	activity change, negative = cytotoxicity
CCc1nn(CCCC(=O)NCc2ccccc2OC)c(=O)c2cc3occc3n12	inactive: 6.68%
O=C(NCCS(=O)(=O)N1CCN(c2cccc(Cl)c2)CC1)C(c1ccccc1)c1ccccc1	inactive: 2.9%
CCOCCCn1c(=N)c(C(=O)NC2CCCCC2)cc2c(=O)n3ccccc3nc21	inactive: 8.09%
COc1ccc(N(C)C(=O)Cn2cnc3sc(C)c(S(=O)(=O)N4CCN(c5ncccn5)CC4)c3c2=O)cc1	inactive: 15.8%
Cc1ccc(-c2nc3cccc(C)n3c2Nc2ccc3c(c2)OCCO3)cc1	inactive: -20%
COc1ccc(-c2c3c(nc4sc(C(=O)Nc5cccc(OC)c5)c(N)c24)CC(C)(C)CC3=O)cc1	inactive: 0.565%
CCc1ccccc1NC(=O)Cn1c(=O)n(CCc2ccccc2)c(=O)c2sc3ccccc3c21	inactive: -9.73%
O=C(CSc1nc2ccccc2nc1Cc1ccccc1)N1CCc2ccccc21	inactive: 3.59%
Cc1cccc(-c2nc3c4ccccc4nc(N4CCN(c5cccc(Cl)c5)CC4)n3n2)c1	inactive: 11.3%
CCC(C)NC(=O)c1ccc(CNS(=O)(=O)c2ccc3c(c2)C(C)(C)C(=O)N3C)cc1 (centres undefined)	inactive: 2.02%
Cc1cc(C)c2oc(-c3cccc(NC(=O)c4cccc(F)c4)c3C)nc2c1	inactive: 13.4%
COc1ccc(CCNC(=O)c2ccc(Cn3c(=O)c4cccn4c4cccnc43)cc2)cc1OC	inactive: 15.2%
Cc1cc(C(=O)N2CCN(c3ccccc3F)CC2)c2c(C)nn(-c3ccccc3)c2n1	inactive: -9.08%
Cc1cc(C)n2nc(CNS(=O)(=O)c3cccc(Cl)c3)nc2n1	inactive: -8.2%
COCCNC(=O)c1c(NC(=O)c2cc(=O)c3cc(C)cc(C)c3o2)sc2c1CCCC2	inactive: 8.27%
COc1ccc(C2CC(=O)c3cc(-c4nc(-c5cccc([N+](=O)[O-])c5)cs4)c(=O)n(-c4cccc(C)c4)c3C2)cc1 (centres undefined)	inactive: -1.43%
Cc1ccc(NC(=O)CSc2nc3ccc(NC(=O)c4ccco4)cc3s2)cc1	inactive: 12.6%
COC(=O)c1c(NC(=O)Cc2coc3cc(C)cc(C)c23)sc2c1CCC2	inactive: -3.64%
COc1cc(C(=O)NCc2ccc3c(c2)CCN3C(=O)c2ccc(Cl)cc2)cc(OC)c1OC	inactive: 12.2%
COc1cccc(Cn2c(C)c(CNCc3cccc(C)c3)c(C(=O)O)c2C)c1	inactive: 2.27%
CCc1ccc(NC(=O)c2cnc3c(-c4ccccc4)c(C)nn3c2C)cc1	inactive: 1.41%
CC(=O)c1ccc(NC(=O)c2ccc(-c3nc(CSc4ccc(C)cc4)c(C)o3)cc2)cc1	inactive: -4.01%
